# From the RNAGym collection of RNA variant scans (doi:10.1093/nar/gkz1192)
# Read counts are not given, so values of variants with three or more changes are uncertain.
# B1: CPEB3 Ribozyme (parent)
# chain: UAACAGGGGGCCACAGCAGAAGCGUUCACGUCGCAGCCCCUGUCAGAUUCUGGUGAAUCUGCGAAUUCUGCUGUAUAUCUC
# Variants of: B1
# Experiment: self-cleavage, relative activity (ratio to wild type); higher = more cleavage; in vitro, sequencing
# In short: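 Libraries of CPEB3 self-cleaving ribozyme mutants came from rounds of error-prone PCR and carried barcodes, which DNA sequencing matched to variants. In vitro transcription used T7 RNA polymerase at 37°C for 5 hours, with a further 15 min in DNase I before EDTA stopped the reaction; the ribozymes cleaved during both steps. The RNA was reverse transcribed with template switching and sequenced on Illumina. Relative activity is the cleaved/total read fraction of a variant divided by that of the unmutated ribozyme, averaged over three batches with at least 5 reads.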
row,Variant,self-cleavage
1,U31A C32A A35G A64G,0.4
2,U31A C32A U72G,0.23
3,U31A C34U U72C,0.15
4,U31A C38A U41C U54C,0.19
5,U31A C38A U58C,0.36
6,U31A C40U U74C A75U,0.39
7,U31A C50U A56G,0.37
8,U31A C50U U58C,0.15
9,U31A C62U A65G,0.26
10,U31A G36A A45U A56G,0.25
11,U31A G36A A57G C62A U74C,0.06
12,U31A G36C U51A,0.07
13,U31A G42A A64U,0.2
14,U31A G61C U67C,0.09
15,U31A U41A U60A U66A,0.13
16,U31A U41A U72C A77G,0.06
17,U31A U41A U72C U74A U76C,0.14
18,U31A U41C A45G A56G,0.26
19,U31A U41C G42A A45G U49C U66C U67A,0.18
20,U31A U41C G73A U74A,1.1
21,U31A U41C U43C U80C,0.13
22,U31A U41C U48C U69C,0.11
23,U31A U43C A64G G73A,0.43
24,U31A U43C U51G A75G,0.09

row,Variant,self-cleavage
1,U31A U49A U51C,0.45
2,U31A U49A U66C,0.16
3,U31A U49C C59U A64G U69A,0.04
4,U31A U49C U54A,0.13
5,U31A U49C U60A,0.43
6,U31A U49C U60C U78A,0.05
7,U31A U51A A56U,0.15
8,U31A U51C A64U A65G U72A,0.05
9,U31A U51C U66C,0.14
10,U31A U51C U69G,0.25
11,U31A U54A U58C A64G,0.15
12,U31A U54C C62U A64U,0.16
13,U31A U54C U78C,0.47
14,U31A U58C U80A,0.38
15,U31A U60A A65G U67A,0.12
16,U31A U66C U72C,0.34
17,U31A U67C U78A,0.14
18,U31A U69A U72C,0.19
19,U31A U74C U76C,1.12
20,U31C A35G A45G,0.69
21,U31C A35G A45G U54G,1.14
22,U31C A35G C37U G63A U76C,1.18
23,U31C A35G G46A A47G U49C U76A C79A,0.08
24,U31C A35U U54C A64U,0.13

row,Variant,self-cleavage
1,U31C A45G A64U,0.17
2,U31C A45G U48C U54C A57G U67C,0.13
3,U31C A45G U49C U80C,0.21
4,U31C A45G U51A,0.46
5,U31C A45G U51G,0.5
6,U31C A45G U78C,0.36
7,U31C A45U U49C A65G U72C,0.15
8,U31C A45U U80C,0.46
9,U31C A47G G52C,0.61
10,U31C A56C U69C,0.29
11,U31C A56G U72A,0.38
12,U31C A56G U80A,0.66
13,U31C A56U G70A,0.17
14,U31C A57C U60A,0.4
15,U31C A57G C59G,0.12
16,U31C A57G U67C,0.16
17,U31C A57G U72C,0.72
18,U31C A64G A65U U67C,0.14
19,U31C A64G A75G,0.29
20,U31C A64G U66C U74C U80A,0.1
21,U31C A65G U66C,0.26
22,U31C C32G U72A,0.19
23,U31C C32U U41A A64C,0.07
24,U31C C34U A35C U58G A64G,0.05

row,Variant,self-cleavage
1,U31C C37U U74C,0.95
2,U31C C38A U49C A56C G63U U72A,0.05
3,U31C C38U U41A A47U,0.17
4,U31C C39A A45G A64G U67C U72A,0.05
5,U31C C39A A47G U48A U78C,0.3
6,U31C C39A G61A U80C,0.13
7,U31C C39G U69C U80A,0.2
8,U31C C39U C50A A56G,0.23
9,U31C C39U U72A,0.7
10,U31C C40U A75G,0.26
11,U31C C40U U41G C50A,0.34
12,U31C C44A A64G,0.24
13,U31C C44U A56G,0.15
14,U31C C44U A56U,0.12
15,U31C C62U C68U U78G,0.14
16,U31C C68U U69G,0.12
17,U31C G33A A47G A57G,0.08
18,U31C G33A U41C A65G,0.18
19,U31C G33A U76C,0.46
20,U31C G33U U48C,0.14
21,U31C G36A C38A U41C A64U,0.08
22,U31C G36C G53A A56U A65U U80C,0.05
23,U31C G36U A45G A47G U69C,0.03
24,U31C G42A A57U U72G,0.12

row,Variant,self-cleavage
1,U31C G42C U49C U66A,0.09
2,U31C G42U U78C,0.19
3,U31C G46A A57G,0.18
4,U31C G52C C81U,0.96
5,U31C G52C U69C,0.29
6,U31C G53A A56G,0.94
7,U31C G61C A77U,0.2
8,U31C U41A A45G A56G G63C A64U,0.06
9,U31C U41A U49C U78C,0.15
10,U31C U41A U60C U78C,0.19
11,U31C U41A U66A A75G,0.06
12,U31C U41C A64G,0.47
13,U31C U41C U43A,0.55
14,U31C U41C U49A A57G,0.19
15,U31C U41C U51C U78C,0.72
16,U31C U41C U58C,0.31
17,U31C U41C U69A U72A,0.3
18,U31C U41C U78C,0.87
19,U31C U43A A57G U78C,0.58
20,U31C U43A A77G U80C,1
21,U31C U43A U48C U58A C79U,0.1
22,U31C U43A U60C,0.31
23,U31C U43C C62G,0.08
24,U31C U43C C71G,0.1

row,Variant,self-cleavage
1,U31C U43G A45G A57G G73C,0.41
2,U31C U48C U49C A65U U78G U80A,0.09
3,U31C U48C U54C A57G U60A A75G U80C,0.19
4,U31C U48C U54C U72C,0.16
5,U31C U48G A56U,0.12
6,U31C U49A U51C,0.44
7,U31C U49C U76A,0.37
8,U31C U49G A57G U69A,0.32
9,U31C U49G U51C G53U U60C,0.21
10,U31C U51A A56G U76C,0.35
11,U31C U51G A75G,0.52
12,U31C U51G U78C,0.74
13,U31C U54A U72A,0.59
14,U31C U54C A64G,0.54
15,U31C U54C U72C U78C,1.05
16,U31C U54G A64G U69G U80C,0.1
17,U31C U60C A64U U74C,0.18
18,U31C U60C C71U,0.29
19,U31C U60C U66C U80C,0.2
20,U31C U60C U67C,0.13
21,U31C U72C U80C,1.09
22,U31C U76G U78A,0.48
23,U31G A35G U41C,1.04
24,U31G A35U U54C A64U,0.44

row,Variant,self-cleavage
1,U31G A45G A57G G61A,0.45
2,U31G A57C U69A,0.2
3,U31G A64G A65G,0.15
4,U31G C32U G46A,0.08
5,U31G C39A U80A,0.1
6,U31G C68G U80C,0.14
7,U31G U49A C79U,0.46
8,U31G U51A A56G A77U,0.4
9,U31G U51C U67C U72C,0.2
10,U31G U54C G63A,0.35
11,U31G U66C U72C,0.12
12,U31G U69C U76A,0.18
13,C32A A56G A64G,0.14
14,C32A A77G U80A,0.19
15,C32A C37A U41A U49C A65G,0.11
16,C32A G36A U72A,0.06
17,C32A G36U A64G,0.26
18,C32A G42U A45G A65U U66C,0.19
19,C32A G53U U54C A65G,0.12
20,C32A G61C A64G C71A,0.11
21,C32A U41C U51A U72C U76G,0.07
22,C32A U43C A45G U54A A57U U67C U74A,0.05
23,C32A U49A C59U,0.1
